Out of some 45,000 compounds screened, about 65 (0.1%) were called active. The call rests on the fitted dose curve; in most records, active means well fitted activation curve with a large enough effect; inconclusive means small, poorly fitted or top-dose-only effect; inactive means no such curve, though single readings can be large or run the other way. The list shows a part of the results.
These compounds were tested against Galactocerebrosidase (Homo sapiens) (UniProt P54803) (assay: A Novel Cell-Based Assay to Identify Small Molecules for B -Galactocerebrosidase). Conditions: 145M-Twi-hGALC-G270D cells (Twitcher mouse brain line with human GALC G270D), HMU-beta-Gal fluorescence, 48 h; series mostly up to 57.5 µM; activation: at the top concentration.
Chain of UniProt P54803 (P54803 whole entry, looked up): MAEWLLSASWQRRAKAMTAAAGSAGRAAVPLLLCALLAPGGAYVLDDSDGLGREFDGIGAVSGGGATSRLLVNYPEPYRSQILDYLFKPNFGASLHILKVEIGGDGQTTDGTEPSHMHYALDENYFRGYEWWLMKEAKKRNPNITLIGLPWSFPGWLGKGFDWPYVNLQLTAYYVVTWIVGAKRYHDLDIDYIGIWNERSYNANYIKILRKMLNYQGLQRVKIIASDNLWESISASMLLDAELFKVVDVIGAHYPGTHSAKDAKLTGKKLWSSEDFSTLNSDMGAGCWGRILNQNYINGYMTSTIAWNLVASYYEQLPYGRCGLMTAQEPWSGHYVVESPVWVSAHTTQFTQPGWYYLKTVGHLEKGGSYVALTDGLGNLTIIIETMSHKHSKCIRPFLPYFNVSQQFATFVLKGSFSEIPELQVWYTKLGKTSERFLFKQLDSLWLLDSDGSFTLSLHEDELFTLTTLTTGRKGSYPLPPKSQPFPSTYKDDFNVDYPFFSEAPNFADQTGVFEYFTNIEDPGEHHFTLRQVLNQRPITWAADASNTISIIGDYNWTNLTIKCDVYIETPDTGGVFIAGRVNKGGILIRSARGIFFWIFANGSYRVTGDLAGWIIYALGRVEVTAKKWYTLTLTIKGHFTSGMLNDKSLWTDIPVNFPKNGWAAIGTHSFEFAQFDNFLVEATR
Method in brief: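 Mutant human GALC (G270D), stably expressed in a Twitcher mouse brain cell line lacking endogenous GALC, is measured in live-treated cells via 6-hexadecanoylamino-4-methylumbelliferyl-β-galactoside hydrolysis (0.1 mM final, pH 5.2) with fluorescent detection.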
Further: 0% is about no effect; nearly all actives have a fitted effect of over 65% in size.

activation, inactive:
CCOC(=O)c1ccc(NC(=O)CSc2nccn2Cc2ccc(OC)cc2)cc1 -15.6%, Cc1cc(C)cc(C(=O)Nc2nnc3n2CCS3)c1 -11.8%, COc1ccc(OCc2nc3c4c(-c5ccc(OC)cc5)c(-c5ccc(OC)cc5)oc4ncn3n2)cc1 -17%, CCOc1ccccc1NC(=O)c1cnc(N2CCOCC2)c2ccccc12 -13%, CNc1oc(-c2ccc(COc3ccc(C)cc3)o2)nc1C#N -5.27%, CCOc1ccccc1C(=O)Nc1cc(-c2ccc(C)cc2)no1 -5.49%, Cc1cccc(S(=O)Cc2ccc(C(=O)NC3CCCCCC3)o2)c1 (stereo unspecified) -9.25%, O=S(=O)(c1ccc(-c2cnc(C3CC3)o2)cc1)N1CCN(c2cccc(Cl)c2)CC1 0.804%, Cc1c(-c2ccccc2)n(-c2ccccc2O)c2nc3c(c(=O)n(C)c(=O)n3C)n12 -2.11%, Cc1ccc(C(=O)Nc2ccc(C(=O)OCc3cc(=O)n4c5c(sc4n3)CCCC5)cc2)cc1 -16.5%, COc1ccccc1Nc1ncc(C(=O)Nc2ccc(OC)c(OC)c2)c2ccccc12 -10.7%, O=C(c1ccc2c(c1)N(Cc1ccccc1)C(=O)c1ccccc1S2=O)N1CCC(Cc2ccccc2)CC1 (stereo unspecified) -8.66%, Cc1ccc2c(c1)c(=O)c(S(=O)(=O)c1ccc(C)c(C)c1)cn2CC(=O)Nc1ccccc1 -2.17%, CC[N+](CC)(CCNC(=O)C(=O)NCC[N+](CC)(CC)Cc1ccccc1Cl)Cc1ccccc1Cl -13.4%, CCCOc1ccc(C2=NC(c3ccc(F)cc3)=Nc3ccc(OC)cc3N2)cc1 -33.6%, CCc1cccc(C)c1NC(=O)C1=C(C)C(=O)OC12CCC(C)CC2 (stereo unspecified) -11.5%, COc1ccc2nc(N(Cc3cccnc3)C(=O)COc3ccccc3)sc2c1 -18.4%, COc1ccccc1CNC(=O)c1ccc2c(c1)CCN2S(=O)(=O)c1ccc(Cl)cc1 -8.11%, COC(=O)c1cc(S(=O)(=O)N2CCN(c3ccc(F)cc3)CC2)cn1C -14.7%, COC(=O)c1ccc(Cn2nnc3c(=O)[nH]c(C4CCCN(S(=O)(=O)c5ccccc5)C4)nc32)cc1 (stereo unspecified) 2.56%, Cn1cc(C(=O)NCCc2ccc(Cl)cc2)c(=O)c2cc(S(=O)(=O)N3CCCCC3)ccc21 -5.19%, COc1ccc(N2CCN(C(=O)Cn3nc(Cc4cccnc4)c4ccccc4c3=O)CC2)cc1 -16.8%, COc1ccccc1CNC(=O)c1cnc2sc(N3CCOCC3)nn2c1=O -4.01%, Cc1ccc(Nc2ncnc3c2nc2n3CCCC2)c(Br)c1 -22.5%, COc1ccc(NC(=O)NCC2CCN(Cc3ccccc3F)CC2)c(OC)c1 -28.9%, Cc1ccc(F)cc1NC(=O)CCSc1nc(-c2ccco2)cc(C(F)(F)F)n1 2.71%, CC1CCCN(S(=O)(=O)c2cc(C(=O)NCc3ccccc3Cl)n(C)c2)C1 (stereo unspecified) -1.26%, C=Cc1ccc(Cn2c(C(=O)O)c(CNCc3ccccc3)c3ccc(OC)cc32)cc1 -22.1%, Cc1ccc(NC(=O)C(=O)NCC(c2cccnc2)N2CCc3ccccc3C2)cc1 (stereo unspecified) -7.53%, CCOc1cc2[nH]c(=O)n(CCCC(=O)NCc3ccc(OC)cc3)c(=O)c2cc1OCC -13.1%, COc1ccc(-c2cn3c(n2)sc2cc(C(=O)Nc4ccc(F)cc4Cl)ccc23)cc1 -0.801%, COc1ccc(-n2ccn(CC(=O)Nc3ccc(C)c(C)c3)c(=O)c2=O)cc1OC -14.7%, CC(C)CCNC(=O)c1nn(C)c2c1CSc1ccccc1-2 -2.98%, COC(=O)c1c(-c2cccs2)csc1NC(=O)c1cc(OC)c(OC)c(OC)c1 -25.5%, COc1cccc(C2c3c(-c4ccccc4O)n[nH]c3C(=O)N2Cc2cccnc2)c1 (stereo unspecified) -1.25%, O=C(NC1CCCCCC1)c1ccc(CS(=O)c2ccc(Br)cc2)o1 (stereo unspecified) -14%, CCN(C(=O)c1cc2cc(Br)cc(OC)c2oc1=O)c1ccccc1 -11.6%, CC1=CC(=O)c2ccccc2C1=O -10.7%, COc1cc(Br)ccc1C1C(C(=O)Nc2ccc(C)cc2C)=C(C)Nc2nnnn21 (stereo unspecified) -20.4%, COc1ccc(CCNc2nc3ccccc3c3nc(-c4cccc(C)c4)nn23)cc1OC -10.6%, COc1ccc(S(=O)(=O)NCCc2sc(-c3cccc(C)c3)nc2C)cc1 -41.9%, Cc1ccc(CCNC(=O)c2cccc(Nc3nc4ccccc4nc3-n3nc(C)cc3C)c2)cc1 -7.88%, CCc1ccccc1NC(=O)Cn1c(=O)n(-c2ccc(C)c(C)c2)c(=O)c2oc3ccccc3c21 -25.4%, Cc1ccc(NC(=O)CSCc2cnn(-c3ccccc3)c2-n2cccc2)c(Cl)c1 -2.81%, COc1cc(OC)c(NC(=O)NCc2cccn2Cc2ccccc2)cc1Cl -15.7%, CC(C)CCNC(=O)c1ccc(Cn2c(SCC(N)=O)nc3ccccc3c2=O)cc1 -22.6%, CCOc1cc(C(=O)OCc2cc(=O)n3nc(C4CC4)sc3n2)cc(OCC)c1OCC -11.5%, CCc1ccc(-n2nc(C)c3c(C(=O)N4CCN(c5cccc(Cl)c5)CC4)cc(C)nc32)cc1 -12.6%, CCOC(=O)c1ccc(NC(=O)CCc2c(C)nc3c(c(C)nn3C(C)(C)C)c2C)cc1 -11.5%, Cc1nn(CC(=O)N2CCN(c3cccc(Cl)c3)CC2)c(=O)c2c1sc1ccccc12 -14.7%, COC(=O)c1ccc(CSc2nc3c([nH]c4ccccc43)c(=O)n2-c2cc(C)cc(C)c2)o1 -8.17%, CCS(=O)(=O)c1cccc(C(=O)N2CCN(c3nc4c(C)ccc(Cl)c4s3)CC2)c1 -21.9%, CCCCCn1c(CNC(=O)c2ccc(F)cc2)nc2ccccc21 -15.9%, CN(C(=O)Cn1ncc2c1-c1ccccc1OC2)c1ccc(Br)cc1 -6.08%, N=C(N)N1CCc2ccccc2C1 -4.82% [at 5.77 µM], Cc1ccc(S(=O)(=O)NCCc2nnc3ccc(SCC(=O)Nc4ccc(OC(F)(F)F)cc4)nn23)cc1 -12.9%, O=C1COc2cc(S(=O)(=O)CCC(=O)N3CCN(c4ccccc4)CC3)c(Cl)cc2N1 -12%, CCOc1ccc(NC(=O)Cn2c(=O)c(CNc3ccccc3)cc3cc4c(cc32)OCCO4)cc1 12.1%, CCCc1ccc(-c2ccc(C(=O)Oc3ccc(Br)cc3)cc2)nc1 -6.04%, COc1ccc(Cl)cc1C(=O)Nc1c2c(nn1-c1ccc(Cl)cc1)CS(=O)(=O)C2 -27.2%, Cc1cc(C)cc(-n2ccnc(NCc3ccc(F)cc3)c2=O)c1 -9.86%, COc1ccccc1OCC(=O)Nc1c(C(=O)c2ccc(C)cc2)oc2ccccc12 -3.68%, CCCCCn1c(-c2cccc(C)c2)nc2ccccc21 -15.6%, O=C(Nc1ccc2c(c1)OCO2)c1cc(-c2ccc(Cl)cc2)on1 -12.2%, CN(C)C1(CNC(=O)COc2ccc(C(C)(C)C)cc2)CCCCC1 -9.68%, CCOC(=O)c1c(C)[nH]c(C)c1S(=O)(=O)N1CCC(C(=O)NCc2ccc(N(C)C)cc2)CC1 -4.95%, COc1ccc(OC)c(CCNC(=O)C(C)n2c(C)c3cnn(-c4ccccc4)c(=O)c3c2C)c1 (stereo unspecified) -6.86%, COc1ccccc1CNS(=O)(=O)c1ccc(N2CCCCS2(=O)=O)cc1 -18.4%, CCOc1ccc(NC(=O)Cn2cc(C(=O)c3ccccc3)c(=O)c3cc4c(cc32)OCO4)cc1 -4.45%, Cc1ccc(Cn2c(=O)n(-c3ccc(C)c(C)c3)c(=O)c3c(C)c(C)sc32)cc1 -16.9%, CCOc1ccc(CNC(=O)C2=Cc3cc(Br)ccc3OC2)cc1OC -8.79%, COc1ccccc1NC(=O)c1oc2ccccc2c1NC(=O)COc1ccccc1OC -10.8%, COc1ccc(Cl)cc1NC(=O)CSc1nc(=O)[nH]c2c1CCCC2 -8.48%, CCOc1ccc(OCC)c(NC(=O)c2csc3c2CCCC3)c1 -12.8%, CN(C)CCOc1ccccc1Cc1ccccc1 -15.2%, COc1cc(Cl)c(NC(=O)CN(C)S(=O)(=O)c2ccc3c(c2)CCCC(=O)N3)c(OC)c1 -5.13%, COc1ccc(NC(=O)c2cc(C)nc3c2c(C)nn3-c2cccc(Cl)c2C)c(OC)c1 -0.428%, CC(=O)N1c2c(cc(Br)cc2S(=O)(=O)NCc2ccccc2Cl)CC1C (stereo unspecified) -15.8%, Cc1ccc2oc(-c3ccc(NC(=O)c4cccc(F)c4)c(C)c3)nc2c1 14.6%, COc1cc(NC(=O)N2CCC(CN3CCc4ccccc4C3)CC2)cc(OC)c1 -0.612%, Cc1ccc(-c2cn3c(n2)sc2cc(C(=O)NCc4cccs4)ccc23)c(C)c1 -8.21%, Cc1ccc(N(Cc2cc3ccccc3[nH]c2=O)C(=O)c2cccc(Cl)c2)cc1 -10.1%, CCc1ccc(-n2nc(CO)c(C(=O)NCC(c3ccccc3)c3ccccc3)n2)cc1 -7.92%, CCN(CC)CCCNC(=O)CSc1nc2nc(C)c(Cc3c(F)cccc3Cl)c(C)n2n1 -15.6%, CCCc1nc2c(C)cc(-c3nc4ccccc4n3C)cc2n1Cc1ccc(-c2ccccc2C(=O)O)cc1 -7.72%, Cc1ccc(C)c(NC(=O)Cn2c(=O)n(Cc3ccc4c(c3)OCO4)c(=O)c3oc4ccccc4c32)c1 -8.37%, CC1=C(C(N)=O)C(c2cccc(C)c2)n2nc(-c3cccc(C)c3)nc2N1 (stereo unspecified) -9.52%, COc1ccc(-c2noc(CSc3nc(C)cc(=O)[nH]3)n2)cc1OC -9.34%, Cc1ccc(CSc2nnc(-n3c(=O)c(C#N)cc4c(=O)n5cc(C)ccc5nc43)s2)cc1 -8.19%, COc1ccc(OCC2c3cc(OC)c(OC)cc3CCN2C(=O)COc2ccc(Cl)cc2Cl)cc1 (stereo unspecified) -21.5%, COc1ccc(Cn2ccc3nc(C)c(C(=O)N4CCN(c5ccccc5OC)CC4)cc3c2=O)cc1 -13.4%, CC(C)NC(=O)C(c1ccccc1)N1Cc2ccccc2C1=O (stereo unspecified) -20.1%, CC(C)c1ccc2occ(CC(=O)Nc3ccccc3Cl)c2c1 -23.5%, CCOC(=O)C1CCN(S(=O)(=O)c2ccc(N3CCCCS3(=O)=O)cc2)CC1 18.6%, CCCCOC(=O)c1ccc(O)cc1 -7.52%, COCCCOc1cc(C[C@@H](C[C@H](N)[C@@H](O)C[C@H](C(=O)NCC(C)(C)C(N)=O)C(C)C)C(C)C)ccc1OC 2.03%

Reference: PubChem BioAssay AID1159614 (National Center for Advancing Translational Sciences (NCATS), 2016)
